The values below come from paper PMC4336329 (PLoS ONE, 2015).

Screen size: about 310,000 compounds; about 2,200 (0.71%) showed an effect of 50% or more. The effect is printed as a negative number. The list shows a part of the results.

The target of the test is human ether-à-go-go-related gene (hERG) potassium channel (human, UniProt Q12809). Description: primary screen, population patch clamp on CHO cells stably expressing hERG.
Sequence of human ether-à-go-go-related gene (hERG) potassium channel (Q12809 whole entry, looked up): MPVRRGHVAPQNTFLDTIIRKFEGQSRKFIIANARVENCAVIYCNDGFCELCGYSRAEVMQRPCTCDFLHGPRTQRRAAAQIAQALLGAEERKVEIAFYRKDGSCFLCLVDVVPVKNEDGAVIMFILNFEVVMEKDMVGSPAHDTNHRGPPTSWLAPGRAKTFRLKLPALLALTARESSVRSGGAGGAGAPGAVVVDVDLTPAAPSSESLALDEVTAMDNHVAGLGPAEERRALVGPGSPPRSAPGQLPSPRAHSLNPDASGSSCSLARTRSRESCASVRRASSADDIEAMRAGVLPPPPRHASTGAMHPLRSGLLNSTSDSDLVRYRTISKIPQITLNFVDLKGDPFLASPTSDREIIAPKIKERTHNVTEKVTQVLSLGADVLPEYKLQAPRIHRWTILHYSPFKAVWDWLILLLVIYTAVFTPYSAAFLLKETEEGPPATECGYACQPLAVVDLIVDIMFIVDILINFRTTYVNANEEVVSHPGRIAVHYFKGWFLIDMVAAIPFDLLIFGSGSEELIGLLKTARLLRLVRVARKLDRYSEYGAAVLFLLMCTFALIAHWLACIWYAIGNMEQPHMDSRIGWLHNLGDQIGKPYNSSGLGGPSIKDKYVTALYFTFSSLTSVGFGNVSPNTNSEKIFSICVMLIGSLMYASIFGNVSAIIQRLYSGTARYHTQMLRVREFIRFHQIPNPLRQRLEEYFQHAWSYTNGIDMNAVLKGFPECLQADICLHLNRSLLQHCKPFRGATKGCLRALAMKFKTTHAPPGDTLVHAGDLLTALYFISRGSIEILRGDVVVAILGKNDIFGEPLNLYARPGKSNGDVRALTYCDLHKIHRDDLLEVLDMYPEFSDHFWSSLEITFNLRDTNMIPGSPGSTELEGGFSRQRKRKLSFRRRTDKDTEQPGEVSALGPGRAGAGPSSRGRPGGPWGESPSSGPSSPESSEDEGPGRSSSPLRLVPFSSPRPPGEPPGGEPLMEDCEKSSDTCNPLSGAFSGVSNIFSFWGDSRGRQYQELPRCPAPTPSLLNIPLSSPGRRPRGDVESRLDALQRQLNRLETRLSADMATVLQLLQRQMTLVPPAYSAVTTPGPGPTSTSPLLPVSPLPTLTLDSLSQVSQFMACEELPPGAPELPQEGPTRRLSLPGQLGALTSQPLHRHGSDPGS
`CCn1c(SC)nnc1C1CCN(CC(=O)Nc2ccccc2N2CCOCC2)CC1`: the “hERG current change (%, negative = inhibition) at 1uM” value is given as 5.57%.
In the case of `O=C(NCc1ccccc1)C(c1ccccn1)N(C(=O)c1csnn1)c1ccccc1F` (centres unmarked), the “hERG current change (%, negative = inhibition) at 1uM” value is listed as -0.204%.
With `COc1ccc([N+](=O)[O-])cc1NC(=O)CCc1ccccc1`, the “hERG current change (%, negative = inhibition) at 1uM” value is listed as 7.21%.
As for `O=C(Nc1cccc(OC(=O)N2CCCCC2)c1)N1CCOCC1`, the “hERG current change (%, negative = inhibition) at 1uM” value is listed as 12.9%.
Then `S=c1[nH]c2ccccc2n1Cc1ccccc1`, with 16.2%; and `COc1ccc(NC(=O)CSc2ccccn2)c([N+](=O)[O-])c1`, with 13.6%.
The value for `CCOc1ccc(C2C(C(=O)c3ccco3)=C(O)C(=O)N2CCCn2ccnc2)cc1OC` (centres unmarked) was 1.12%; that for `CCOc1ccc(C(=O)CCC(=O)NCC(=O)Nc2c(C)cccc2C)cc1` was 2.9%.
The value for `COC(=O)CCC(=O)NC(=S)Nc1ccc(S(=O)(=O)N2CCCC2)cc1` was 8.06%; that for `CC(C)C(=O)Nc1nnc(SCC(=O)N2C(C)CCCC2C)s1` (centres unmarked) was 10.1%; that for `O=C(Cn1nnc(-c2ccccc2)n1)Nc1ccccc1N1CCOCC1` was 12.2%.
As to `CC(OC(=O)CN1C(=O)C2CCCCC2C1=O)C(=O)Nc1ncc(Cl)cc1Cl` (centres unmarked), the “hERG current change (%, negative = inhibition) at 1uM” value was found to be 17.3%.
As to `CCOC(=O)C1(Cc2ccc(OC)cc2)CCN(C(=O)c2cc3ccccc3[nH]2)CC1`, the “hERG current change (%, negative = inhibition) at 1uM” value is listed as 4.46%.
For `O=C1CCC([N+](=O)[O-])C(c2cccc(Cl)c2Cl)N1` (centres unmarked), the “hERG current change (%, negative = inhibition) at 1uM” value is -3.66%.
Consider `CN(Cc1ccccc1)C(=O)c1[nH]cnc1C(=O)N[C@@H](CCCCNC(=O)OC(C)(C)C)C(=O)OC(C)(C)C`, for which the “hERG current change (%, negative = inhibition) at 1uM” value turned out to be 1.36%.
The value for `Nc1c(-c2ccccn2)cnn1-c1nc(-c2ccc(F)cc2)cs1` was 6.75%; that for `Cc1cc(C)nc(SCc2ccc(F)cc2)n1` was 2.48%; that for `CCCNS(=O)(=O)c1ccc(OCC(=O)N2CCOCC2)cc1` was 8.1%.
Then `CCn1c(SCC(=O)Nc2cc(C)on2)nc2c1c(=O)n(C)c(=O)n2C`, with 16.3%; and `NC(=O)C(=O)N/N=C1\CCc2ccccc21`, with 13%.
On to `COc1cccc(CNC(=O)COC(=O)C2CC3CCCC(C2)C3=O)c1` (centres unmarked), for which the “hERG current change (%, negative = inhibition) at 1uM” value worked out at 12.6%.
The value for `Cn1nc(C(=O)NCC(=O)Nc2ccc(F)c(F)c2F)c2ccccc2c1=O` was 11.2%; that for `Clc1ccc(CNc2ccccc2NCc2ccc(Cl)nc2)cn1` was 4.92%; that for `CN(C)c1ccc(N2C(=NC(=O)CC3CCCCC3)SC3CS(=O)(=O)CC32)cc1` (centres unmarked) was 13.7%.
`Cc1cc(CC(=O)[O-])n(C)c1C(=O)c1ccc(Cl)cc1.[Na+]`: the “hERG current change (%, negative = inhibition) at 1uM” value is 6.14%.
Then `Cc1csc(N(C)C(=O)CSc2nnc(COc3cccc4ccccc34)o2)n1`, with 9.99%; and `O=C(CS(=O)(=O)c1c[nH]c2ccccc12)Nc1ccc(F)cc1`, with -3.46%; and `Cc1c(Br)c(=O)oc2cc(OCC(=O)N3C[C@H]4C[C@@H](C3)c3cccc(=O)n3C4)ccc12`, with 8.78%.
Consider `O=C(c1ccco1)N1CCCN(Cc2nc(-c3ccc4c(c3)OCO4)no2)CC1`, for which the “hERG current change (%, negative = inhibition) at 1uM” value is on record as -28.5%.
As for `Cc1cccc(C)c1NC(=O)CSc1nnc(-c2ccoc2C)n1C`, the “hERG current change (%, negative = inhibition) at 1uM” value worked out at 7.45%.
As for `O=C(Nc1ccccc1Cl)Nn1cnnc1`, the “hERG current change (%, negative = inhibition) at 1uM” value is on record as 17.9%.
For `Cc1ccc(C(=O)NCCN2CCOCC2)cc1Cl`, the “hERG current change (%, negative = inhibition) at 1uM” value is on record as 8.75%.
With `NC(=O)C1(N2CCCCC2)CCN(C2CC(=O)N(Cc3cccs3)C2=O)CC1` (centres unmarked), the “hERG current change (%, negative = inhibition) at 1uM” value is recorded as 14%.
As for `Cc1cc(C)cc(OC(C)C(=O)Nc2ccc3c(c2)n(C)c(=O)n3C)c1` (centres unmarked), the “hERG current change (%, negative = inhibition) at 1uM” value was found to be 9.42%.
For `c1coc(-c2nc(-c3ccncc3)no2)c1`, the “hERG current change (%, negative = inhibition) at 1uM” value came to 2.91%.
For `COc1ccc(CCNC(=O)C2CC(c3cccc(F)c3)=NO2)cc1` (centres unmarked), the “hERG current change (%, negative = inhibition) at 1uM” value is 14%.
As to `CCOC(=O)CC(C)(C)/C(C)=N/Nc1ccc([N+](=O)[O-])cc1[N+](=O)[O-]`, the “hERG current change (%, negative = inhibition) at 1uM” value is given as -17.2%.
With `CC(CCc1ccccc1)NC(=O)c1ccc(NC(=O)c2cccc(Br)c2)cc1` (centres unmarked), the “hERG current change (%, negative = inhibition) at 1uM” value amounted to 9.18%.
The value for `Cc1noc(C)c1COC(=O)c1ccccc1Sc1ccccc1C#N` was -4.24%; that for `c1ccc(-c2noc(C34CC5CC(CC(C5)C3)C4)n2)nc1` was 6.57%; that for `COc1ccc(CC(=O)c2ccc(OC3OC(CO)C(O)C(O)C3O)cc2O)cc1` (centres unmarked) was 15.3%.
`FC(F)(F)c1cc(C(F)(F)F)c2ccc(N3CCN(c4ncccn4)CC3)nc2n1`: the “hERG current change (%, negative = inhibition) at 1uM” value is reported as -1.74%.
Consider `CC(=O)Nc1cccc(C(=O)OCc2ccc(C(=O)Oc3ccc(Cl)cc3)cc2)c1`, for which the “hERG current change (%, negative = inhibition) at 1uM” value worked out at 6.8%.
Take `Cc1ccc(NC(=O)COC(=O)Cc2cccs2)c(Br)c1`: the “hERG current change (%, negative = inhibition) at 1uM” value is 14.3%.
Take `Cc1cccc(OCC(=O)Nc2ccncc2)c1C`: the “hERG current change (%, negative = inhibition) at 1uM” value was determined as 15.9%.
Regarding `CCOc1cc(CNC)ccc1OCC(=O)NC(C)(C)C.Cl`, the “hERG current change (%, negative = inhibition) at 1uM” value is 16.9%.
With `CCOC(=O)N=S(=O)(Oc1ccc([N+](=O)[O-])cc1)c1ccccc1` (centres unmarked), the “hERG current change (%, negative = inhibition) at 1uM” value is reported as -6.14%.
Regarding `CCC(=O)c1c[nH]c(C(=O)NCCCN2CCOCC2)c1`, the “hERG current change (%, negative = inhibition) at 1uM” value is 12.3%.
On to `CCOCCCN(Cc1ccco1)C(=O)c1cc2c(=O)[nH]c3ccc(C)cc3c2s1`, for which the “hERG current change (%, negative = inhibition) at 1uM” value turned out to be 6.08%.
Then `CCCCCCn1c(NCC)nc2c1c(=O)[nH]c(=O)n2C`, with 3.92%; and `Cc1ccc(CN2CC(C(=O)N3CCN(c4ccccc4Cl)CC3)CC2=O)cc1` (centres unmarked), with 4.56%.
In the case of `O=C(COC(=O)Cc1ccc(Br)cc1)NC12CC3CC(CC(C3)C1)C2`, the “hERG current change (%, negative = inhibition) at 1uM” value was 7.75%.
As for `COc1ccc(Br)cc1CN1CCN(C(=O)Cc2ccccc2)CC1.Cl`, the “hERG current change (%, negative = inhibition) at 1uM” value was -1.38%.
Turning to `Oc1c(/C=N/c2ccccn2)sc2ccccc12`, the “hERG current change (%, negative = inhibition) at 1uM” value was determined as 9.26%.
For the molecule `COc1ccc(C(=O)NC(C)C2CC3CCC2C3)c(OC)c1` (centres unmarked), the “hERG current change (%, negative = inhibition) at 1uM” value is recorded as 7.97%.
Take `CN(C)S(=O)(=O)c1cc(C(=O)N2CCC(C(=O)O)(c3ccccc3)CC2)ccc1Cl`: the “hERG current change (%, negative = inhibition) at 1uM” value is reported as 16.4%.
